Results: PubChem BioAssay AID1476 (National Center for Advancing Translational Sciences (NCATS), 2009)
“And” between values parts separate entries of the source, which are not always exact repeats. Equal entries are not always repeated. The campaign covered roughly 200,000 compounds. About 4,500 (2.2%) were called active. Inconclusive results, whose numbers are uncertain, are shown with a selection of clear calls. Calls come from the whole dose curve; as a rule, active = well fitted inhibition curve with a large enough effect; inconclusive = small, poorly fitted or top-dose-only effect, or effect the other way; inactive = flat fitted curve, though single readings scatter. Where the call is inconclusive, the potency comes from a doubtful curve fit.

Each compound was assayed against Cruzipain (Trypanosoma cruzi) (UniProt P25779) (assay: qHTS Assay for Promiscuous and Specific Inhibitors of Cruzain (without detergent)). Conditions: purified cruzain, Z-FR-AMC fluorescence, no detergent.
How it was run: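 Detergent-free condition (0.00005% Triton X-100) in acetate buffer pH 5.5 with DTT. 1.5 nM enzyme and compound were pre-mixed 15 min, then 2 uM Z-FR-AMC substrate added; reaction progress from fluorescence change between first and third reads (60 s).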
Note: nearly all actives have a fitted effect of over 40% in size.
Potency is the fitted concentration of half-maximal effect; tags give direction and shape of the fitted curve.
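Throughout, for max response, negative = inhibition: plate controls were enzyme without inhibitor for no effect and buffer without enzyme for full effect.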

Chain of UniProt P25779 (P25779 whole entry, looked up): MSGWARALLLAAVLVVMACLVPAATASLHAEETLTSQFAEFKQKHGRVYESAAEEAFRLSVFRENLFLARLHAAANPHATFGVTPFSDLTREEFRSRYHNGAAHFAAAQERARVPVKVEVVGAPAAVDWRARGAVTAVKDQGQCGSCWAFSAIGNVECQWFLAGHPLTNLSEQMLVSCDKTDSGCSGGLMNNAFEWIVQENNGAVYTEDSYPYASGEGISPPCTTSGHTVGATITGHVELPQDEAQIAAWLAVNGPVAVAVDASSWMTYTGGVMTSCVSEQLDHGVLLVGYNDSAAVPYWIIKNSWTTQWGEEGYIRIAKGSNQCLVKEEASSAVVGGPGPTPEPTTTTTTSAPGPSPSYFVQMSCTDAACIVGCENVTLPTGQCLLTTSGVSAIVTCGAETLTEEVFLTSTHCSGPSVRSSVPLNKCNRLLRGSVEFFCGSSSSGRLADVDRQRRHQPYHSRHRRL

Question: For `COc1ccc(NC(=O)CCNS(=O)(=O)c2ccc3c(c2)CCN3C(=O)C2CC2)cc1Cl`, which max response, negative = inhibition is on record?
Answer: inactive: -0.123%

Question: `Cn1c(COc2ccc(Cl)cc2)nnc1SCC(=O)Nc1ccc2c(c1)CCC2` was tested. Which Potency did it give?
Answer: inconclusive: 31.6 µM [inhibitor, single point]

Question: How did the max response, negative = inhibition turn out when `Cc1cc(C)n(-c2nc(C)c(C)c(=O)n2CC(=O)Nc2ccc(Cl)c(Cl)c2)n1` was run?
Answer: inactive: -4.63%

Question: With `O=C1C(c2ccccc2)SC(=Nc2ccccc2)N1S(=O)(=O)c1ccccc1` (stereo not drawn) as the compound, how does the Potency read?
Answer: inconclusive: 39.8 µM [inhibitor, single point]

Question: `Cc1ccc(NC(=O)N2CCN(Cc3nc4ccc(C)cc4o3)CC2)c(Cl)c1` was tested. Which max response, negative = inhibition did it give?
Answer: inactive: 21%

Question: With `O=C1CN(C(=O)COc2ccc(Cl)cc2)C(c2ccc(F)cc2)c2cc(Br)ccc2N1` (stereo not drawn) as the compound, how does the Potency read?
Answer: inconclusive: 39.8 µM [inhibitor, single point]

Question: With `CCOC(=O)c1nc2cc3n(c(C)c-2c1C)C(C)C(C)=C3C` (stereo not drawn) as the compound, how does the max response, negative = inhibition read?
Answer: inactive: -11.4%

Question: With `COc1cc(N2CCCC2)c(OC)cc1/C=C(/C#N)c1cccc(Br)c1` as the compound, how does the Potency read?
Answer: inconclusive: 15.8 µM [inhibitor, partial curve]

Question: `COc1cc(NC(=O)c2cc3ccc4cccnc4c3[nH]2)cc(OC)c1OC` was tested. Which Potency did it give?
Answer: inconclusive: 39.8 µM [activator, single point]

Question: How did the Potency turn out when `COc1ccccc1N1CCN(S(=O)(=O)CCNC(=O)C2CC(=O)N(c3ccccc3)C2)CC1` (stereo not drawn) was run?
Answer: inconclusive: 39.8 µM [activator, single point]

Question: Which Potency does the source give for `CCOC(=O)c1sc(NC(=O)CSc2nncs2)c(C(=O)OCC)c1C` here?
Answer: inconclusive: 39.8 µM [activator, single point]

Question: For `Cc1ccc(-c2csc(NC(=O)CSc3ncn(-c4ccccc4)n3)n2)cc1`, which Potency is on record?
Answer: inconclusive: 31.6 µM [inhibitor, single point]

Question: `O=C(/C=C/c1ccc(N2CCCCC2)c([N+](=O)[O-])c1)c1ccc(S(=O)(=O)N2CCCC2)cc1` was tested. Which Potency did it give?
Answer: active: 31.6 µM

Question: For `c1ccc(Nc2ncncc2-c2ccc3c(c2)OCO3)cc1`, which max response, negative = inhibition is on record?
Answer: inactive: 3.41%

Question: For `Cc1ccc(NC(=O)Cn2c(-c3nonc3N)nc3ccccc32)cc1C`, which Potency is on record?
Answer: active: 3.98 µM

Question: How did the Potency turn out when `COc1ccc(N/C(=N/c2nc(C)cc(C)n2)NC(=O)Nc2ccc(Cl)c(Cl)c2)c(OC)c1` was run?
Answer: inconclusive: 3.16 µM [inhibitor, full curve]

Question: `Cn1c(=O)c2c(-c3ccc(C(C)(C)C)cc3)n(CC3CCCO3)cc2n(C)c1=O` (stereo not drawn) was tested. Which Potency did it give?
Answer: inconclusive: 39.8 µM [activator, single point]

Question: For `CCc1ccc(OCCCC(=O)Nc2ccc(N3CCCCC3)cc2)cc1`, which Potency is on record?
Answer: inconclusive: 39.8 µM [inhibitor, single point]

Question: For `O=C(CNC(=O)c1ccccc1F)OCc1cc(=O)n2nc(C3CC3)sc2n1`, which max response, negative = inhibition is on record?
Answer: inactive: -0.24%

Question: For `CCOc1ccccc1Nc1nnc(-c2cc3cc(Cl)ccc3oc2=O)s1`, which max response, negative = inhibition is on record?
Answer: inactive: -1.69%

Question: How did the max response, negative = inhibition turn out when `C[C@H]1CCCC2(CC[N+](C)(CCC[N+](C)(C)C)CC2)C1` (stereo partly drawn) was run?
Answer: inactive: 2.42%

Question: How did the max response, negative = inhibition turn out when `O=C(NC[C@H]1CCCCN1)c1cc(OCC(F)(F)F)ccc1OCC(F)(F)F` was run?
Answer: inactive: 3.1%

Question: Which Potency does the source give for `CCOC(=O)c1cccc(NC(=O)CSc2nc3cc4ccccc4cc3[nH]2)c1` here?
Answer: inconclusive: 39.8 µM [inhibitor, single point]

Question: How did the Potency turn out when `COc1ccc(Nc2nc3ccccc3nc2NS(=O)(=O)c2ccc(Cl)cc2)cc1OC` was run?
Answer: inconclusive: 5.01 µM [activator, single point]

Question: How did the Potency turn out when `Cc1cccc(NC(=O)CSc2nc3ccccc3c3nc(CCc4c(C)n[nH]c4C)nn23)c1` was run?
Answer: inconclusive: 7.94 µM [activator, full curve] and inconclusive: 10 µM [activator, partial curve]

Question: `O=C(NNC(=O)c1sc2cccc(Cl)c2c1Cl)NC1CCCCC1` was tested. Which max response, negative = inhibition did it give?
Answer: inactive: -7.22%

Question: Which Potency does the source give for `O=[N+]([O-])c1ccc(S(=O)(=O)N2CCn3cccc3C2c2ccccc2F)cc1` (stereo not drawn) here?
Answer: inconclusive: 25.1 µM [inhibitor, single point]

Question: With `Cc1ccc(NC(=S)Nc2ccc3nc(-c4ccccn4)c(-c4ccccn4)nc3c2)cc1C` as the compound, how does the Potency read?
Answer: inconclusive: 39.8 µM [activator, single point]

Question: For `Cc1ccc(Cl)cc1NC(=O)C1CCN(C(=O)c2cnn(-c3ccccc3)c2-n2cccc2)CC1`, which Potency is on record?
Answer: inconclusive: 25.1 µM [activator, single point]

Question: How did the Potency turn out when `O=[N+]([O-])c1cc(-c2nnc(-c3ccccc3)o2)ccc1Oc1ccc(Cl)cc1` was run?
Answer: inconclusive: 31.6 µM [inhibitor, single point]

Question: Which Potency does the source give for `COc1ccccc1N1CCN(C(=O)c2ccc3nc(-c4ccco4)c(-c4ccco4)nc3c2)CC1` here?
Answer: inconclusive: 39.8 µM [activator, single point]

Question: With `COc1ccc(C(=O)Nc2ccc3c(c2)Cc2ccccc2-3)cc1` as the compound, how does the Potency read?
Answer: active: 10 µM

Question: How did the Potency turn out when `Cc1sc2nc(COC(=O)c3ccc(N4CCCC(C)C4)c([N+](=O)[O-])c3)[nH]c(=O)c2c1C` (stereo not drawn) was run?
Answer: active: 7.94 µM

Question: With `COc1ccc2c(-c3ccccc3)cc(SCC(=O)NC3CCS(=O)(=O)C3)nc2c1` (stereo not drawn) as the compound, how does the Potency read?
Answer: inconclusive: 39.8 µM [activator, single point]

Question: `C=CCn1c(SCC(=O)NC2CCCCC2)nnc1-c1ccc(OC)cc1` was tested. Which max response, negative = inhibition did it give?
Answer: inactive: -8.55%

Question: How did the Potency turn out when `O=C(COc1ccc(Cl)cc1Cl)NCCCn1ccnc1` was run?
Answer: inconclusive: 39.8 µM [inhibitor, single point]

Question: For `N#Cc1c(NC(=O)CCn2cnc3ccccc3c2=O)oc(-c2ccccc2)c1-c1ccccc1`, which Potency is on record?
Answer: active: 31.6 µM

Question: `Cc1cc(C)nc(NS(=O)(=O)c2ccc(NC(=O)c3nc(SC(C)C)ncc3Cl)cc2)n1` was tested. Which Potency did it give?
Answer: inconclusive: 39.8 µM [activator, single point]

Question: `Cc1cc2c(cc1Cl)C(c1ccccc1C)CC(=O)O2` (stereo not drawn) was tested. Which max response, negative = inhibition did it give?
Answer: inactive: 4.37%

Question: Which Potency does the source give for `Cc1c(Cl)cccc1-n1ncc(C(=O)N2CCC(C)CC2)c1C1CCN(C(=O)OC(C)(C)C)CC1` here?
Answer: inconclusive: 3.98 µM [activator, single point]

Question: Which Potency does the source give for `O=C(CCSc1nnc2scc(-c3ccccc3)n12)Nc1nc(-c2ccccc2)ns1` here?
Answer: inconclusive: 31.6 µM [inhibitor, single point]

Question: `O=C(CCS(=O)(=O)c1nc(-c2cccs2)cc(C(F)(F)F)n1)Nc1ccc(F)c(Cl)c1` was tested. Which Potency did it give?
Answer: inconclusive: 39.8 µM [inhibitor, single point]

Question: For `CC(=O)c1nn(-c2cccc(Br)c2)cc1C(=O)c1ccc(Cl)cc1`, which Potency is on record?
Answer: inconclusive: 39.8 µM [inhibitor, single point]

Question: For `Cc1[nH]c2ccccc2c1C(=O)CSc1nncn1C`, which Potency is on record?
Answer: inconclusive: 6.31 µM [inhibitor, partial curve, poor fit]

Question: With `Cc1cc(C(=O)COC(=O)Cc2n[nH]c(=O)c3ccccc23)c(C)n1-c1ccc2c(c1)OCCO2` as the compound, how does the Potency read?
Answer: active: 15.8 µM

Question: For `CCc1nn(CC(=O)N2CCN(c3cccc(Cl)c3)CC2)c(=O)c2cc3sccc3n12`, which max response, negative = inhibition is on record?
Answer: inactive: 3.16%

Question: `O=C(COC(=O)Cn1cnc2ccccc2c1=O)Nc1ccc(Cl)c(C(F)(F)F)c1` was tested. Which Potency did it give?
Answer: inconclusive: 31.6 µM [activator, single point]

Question: With `CN(C)c1ccc(/C=N/NC(=O)C2COc3ccccc3O2)o1` (stereo not drawn) as the compound, how does the Potency read?
Answer: inconclusive: 6.31 µM [inhibitor, single point]

Question: `CCOC(=O)c1ccccc1NC(=O)NCc1cccn1Cc1ccc(F)cc1` was tested. Which max response, negative = inhibition did it give?
Answer: inactive: -2.04%

Question: Which Potency does the source give for `CCc1nn2c(N)c(/C=C3\C=Nc4ccccc43)c(=O)nc2s1` here?
Answer: inconclusive: 31.6 µM [activator, single point]

Question: Which Potency does the source give for `COc1ccc(OC)c(NC(=O)CN(c2ccc(OC)c(Cl)c2)S(C)(=O)=O)c1` here?
Answer: inconclusive: 39.8 µM [activator, single point]

Question: For `Cc1ccc2oc(-c3cccc(NC(=S)NC(=O)c4cccs4)c3)nc2c1`, which Potency is on record?
Answer: inconclusive: 31.6 µM [inhibitor, single point]

Question: With `O=C(COc1ccc(F)cc1)Nc1ccc(C(=O)OCc2cc(=O)n3nc(C4CC4)sc3n2)cc1` as the compound, how does the max response, negative = inhibition read?
Answer: inactive: -3.14%

Question: For `Cc1cc(Cl)ccc1OCC(=O)N1CCC(c2nc3ccccc3o2)CC1`, which Potency is on record?
Answer: inconclusive: 39.8 µM [activator, single point]

Question: `CCOC(=O)c1ccc(NC(=O)COc2cccc3c(=O)n(C)ccc23)cc1` was tested. Which Potency did it give?
Answer: inconclusive: 39.8 µM [activator, single point]

Question: `CCOC(=O)C1=C(CSc2nc3ccccc3s2)NC(=O)NC1c1cc(C)ccc1C` (stereo not drawn) was tested. Which Potency did it give?
Answer: active: 31.6 µM

Question: With `COc1ccc(N=C2C(=Nc3ccc(OC)cc3)N(c3ccc(OC)cc3)C(=S)N2c2ccccc2)cc1` as the compound, how does the Potency read?
Answer: inconclusive: 15.8 µM [inhibitor, partial curve]

Question: `CC(=O)N1c2c(cc(Br)cc2S(=O)(=O)N2CCN(c3ccccc3)CC2)CC1C` (stereo not drawn) was tested. Which Potency did it give?
Answer: inconclusive: 25.1 µM [activator, single point]

Question: With `Cc1ccc(N(CC(=O)N2CCc3ccccc32)S(=O)(=O)c2cccs2)cc1` as the compound, how does the Potency read?
Answer: inconclusive: 31.6 µM [inhibitor, single point]

Question: For `CCOC(=O)c1sc(NC(=O)CSc2nc3c(c(-c4ccc(OC)cc4)c2C#N)CCCC3)c(C#N)c1C`, which Potency is on record?
Answer: active: 3.16 µM

Question: For `CCOC(=O)c1cc(-c2ccccc2)n(CCC(=O)Nc2nc3c(C)cccc3s2)c1C`, which Potency is on record?
Answer: inconclusive: 39.8 µM [inhibitor, single point]

Question: How did the Potency turn out when `Cc1ccc(Cl)cc1N1CCN(C(=O)c2ccc3nc(N4CCC(C)CC4)sc3c2)CC1` was run?
Answer: inconclusive: 15.8 µM [inhibitor, partial curve]

Question: With `Cc1cccc(-n2c(=O)c(C#N)cc3c(=O)n4ccccc4nc32)c1` as the compound, how does the Potency read?
Answer: inconclusive: 20 µM [activator, partial curve]
